Relative growth data for 62 compounds are collected here from the supplement of paper PMC9446081.

About 220 (0.56%) of roughly 39,000 compounds showed activity. This is one part of the list.
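Note: static incubation at 37 °C against the wild-type strain, values averaged over two biological replicates.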

The assay has as its system Escherichia coli K-12 BW25113. Put plainly: relative growth (OD600 normalised to plate interquartile mean) (fraction); higher = less growth inhibition, active = 0.2 or less. Particulars: 50 µM; LB; incubation time: overnight (16-24 h).
Regarding `COc1ccc(C#Cc2ccc3c(c2)O[C@@H](CN(C)C(=O)CN2CCOCC2)[C@H](C)CN([C@H](C)CO)S3(=O)=O)cc1`, the relative growth was inactive: 1.02.

On to `Cc1noc(C)c1NC(=O)N(C)C[C@@H]1OCCCC[C@@H](C)Oc2ccc(NC(=O)NC3CCCCC3)cc2C(=O)N([C@H](C)CO)C[C@H]1C`, for which the relative growth was inactive: 0.988.

Consider `COc1ccc(NC(=O)N(C)C[C@H]2OCCCC[C@H](C)Oc3ccc(NS(=O)(=O)c4ccc(OC)cc4)cc3C(=O)N([C@@H](C)CO)C[C@@H]2C)cc1`, for which the relative growth is inactive: 1.02.

As to `O=C(Cc1ccncc1)Nc1ccc2c(c1)[C@@H]1C[C@H](CC(=O)N3CCc4ccccc4C3)O[C@H](CO)[C@@H]1O2`, the relative growth is inactive: 0.999.

`CO[C@H](CN(C)C(=O)c1ccc2c(c1)OCO2)[C@@H](C)CN([C@H](C)CO)S(=O)(=O)c1ccc(F)cc1`: the relative growth was inactive: 0.985.

`C[C@@H]1CN([C@H](C)CO)C(=O)c2cc(NC(=O)Nc3ccccc3)ccc2O[C@@H](C)CCCCO[C@@H]1CN(C)C(=O)NC1CCCCC1`: the relative growth was inactive: 1.01.

For `CC(=O)N1CCc2c(sc(N)c2C(N)=O)C1`, the relative growth is inactive: 0.997.

With `C[C@@H]1CN([C@@H](C)CO)C(=O)c2cccc(NC(=O)C3CC3)c2O[C@H]1CN(C)Cc1ccc2c(c1)OCO2`, the relative growth is inactive: 0.968.

In the case of `COc1cc(C=CC(=O)O)cc(OC)c1O`, the relative growth was inactive: 1.02.

Turning to `C#CCN([C@H](/C=C/C1CC1)[C@@H](O)Cc1ccccc1)[C@@H](Cc1ccc(-n2cc(CCC(=O)NO)nn2)cc1)C(=O)OC`, the relative growth is inactive: 1.

Turning to `C[C@@H]1CN([C@H](C)CO)C(=O)c2cc(C#CC3(O)CCCC3)cnc2O[C@H]1CN(C)S(=O)(=O)c1cccc(F)c1`, the relative growth was inactive: 1.01.

As to `C[C@H](CO)N1C[C@H](C)[C@@H](CN(C)C(=O)Nc2ccccc2)Oc2ccc(NC(=O)Nc3ccc(C(F)(F)F)cc3)cc2CC1=O`, the relative growth was inactive: 1.03.

For the compound `O=C(O)[C@@H]1C(=CCO)O[C@H]2CC(=O)N12`, the relative growth is inactive: 0.95.

`COCC(=O)N1C[C@H](C)[C@H](OC)CN(C)C(=O)c2cc(NC(=O)Nc3ccccc3)ccc2OC[C@H]1C`: the relative growth is inactive: 0.988.

As to `COc1ccc([Si](C)(C)[C@@H]2[C@@H](CC(=O)N3Cc4ccccc4C[C@H]3CO)O[C@]3(C(=O)N(Cc4ccc(N5C(=O)c6cccc7cccc5c67)cc4)c4ccccc43)[C@H]2C)cc1`, the relative growth is inactive: 1.06.

Consider `O=C(C[C@H]1CC[C@H]2[C@@H](COC[C@H](O)CN2S(=O)(=O)c2ccc(Cl)cc2)O1)N[C@@H]1CCN(Cc2ccccc2)C1`, for which the relative growth was inactive: 0.993.

For the compound `C[C@H]1CN([C@@H](C)CO)C(=O)c2cc(NC(=O)Nc3ccc(C(F)(F)F)cc3)ccc2O[C@@H]1CN(C)Cc1ccc(C(=O)Nc2ccccc2N)cc1`, the relative growth was inactive: 1.03.

On to `C[C@@H]1CN([C@H](C)CO)C(=O)c2cc(NC(=O)NC3CCCCC3)ccc2O[C@@H]1CN(C)Cc1ccc(-c2ccccc2)cc1`, for which the relative growth was inactive: 1.01.

Turning to `C[C@@H]1CN([C@@H](C)CO)C(=O)c2cc(NC(=O)Nc3cccc4ccccc34)ccc2O[C@@H]1CN(C)Cc1ccc(-c2ccccc2)cc1`, the relative growth was inactive: 1.

With `O=C(C[C@H]1CC[C@H]2[C@@H](COC[C@@H](O)CN2Cc2ccccc2F)O1)N[C@@H]1CCN(Cc2ccccc2)C1`, the relative growth was inactive: 0.977.

`Cc1noc(C)c1NC(=O)N(C)C[C@H]1Oc2ccc(NC(=O)CCCN(C)C)cc2CC(=O)N([C@@H](C)CO)C[C@@H]1C`: the relative growth was inactive: 1.02.

With `Cc1cn([C@H]2C[C@H](F)[C@@H](CO)O2)c(=O)[nH]c1=O`, the relative growth is inactive: 0.276.

For the compound `C[C@@H]1CN([C@H](C)CO)C(=O)c2cccc(NC(=O)c3cnccn3)c2O[C@@H]1CN(C)CC1CCCCC1`, the relative growth is inactive: 0.989.

Turning to `C[C@H](CO)N1C[C@H](C)[C@H](CN(C)Cc2ccc(C(F)(F)F)cc2)Oc2ccc(NC(=O)Cc3cn(C)c4ccccc34)cc2C1=O`, the relative growth is inactive: 1.03.

For the compound `COc1cc(C(C)=O)ccc1O`, the relative growth is inactive: 1.09.

Take `Cc1ccc(S(=O)(=O)N(C)C[C@@H]2OCCCC[C@@H](C)Oc3ccc(NC(=O)Nc4ccccc4)cc3C(=O)N([C@@H](C)CO)C[C@H]2C)cc1`: the relative growth is inactive: 1.04.

Take `COc1ccc(NC(=O)N(C)C[C@H]2OCCCC[C@@H](C)Oc3ccc(NC(=O)c4ccncc4)cc3C(=O)N([C@@H](C)CO)C[C@H]2C)cc1`: the relative growth is inactive: 1.

With `COc1ccc2c3c(n(c2c1)C)[C@@H](CO)N(C[C@]13CCN(CC1)Cc1ccncc1)C(=O)CN1CCOCC1`, the relative growth is inactive: 0.981.

With `CC[C@H]1CN(C(=O)c2cnccn2)N1C`, the relative growth is inactive: 0.98.

As to `C[C@@H]1CN([C@@H](C)CO)C(=O)c2cc(NS(=O)(=O)c3ccc(F)cc3)ccc2O[C@@H]1CN(C)S(=O)(=O)c1ccc(F)cc1`, the relative growth was inactive: 1.02.

In the case of `Cc1noc(C)c1NC(=O)N(C)C[C@H]1Oc2ccc(NC(=O)c3ccncc3)cc2CC(=O)N([C@H](C)CO)C[C@H]1C`, the relative growth is inactive: 0.976.

Turning to `C[C@@H]1CN([C@H](C)CO)C(=O)c2cc(NC(=O)Nc3ccc(F)cc3)ccc2O[C@H]1CN(C)S(C)(=O)=O`, the relative growth is inactive: 0.997.

Turning to `Cc1noc(C)c1NC(=O)N(C)C[C@@H]1Oc2ccc(NC(=O)Cn3cnnn3)cc2C(=O)N([C@H](C)CO)C[C@@H]1C`, the relative growth was inactive: 0.996.

As to `CCNc1nc(OCCO)nc(N(C)C)n1`, the relative growth is inactive: 1.01.

`COc1ccc(CN(C)C[C@H]2Oc3c(NC(=O)c4ccc(-c5nccs5)cc4)cccc3C(=O)N([C@@H](C)CO)C[C@H]2C)cc1`: the relative growth was inactive: 0.982.

For `O=C1O[C@H](c2ccccc2)[C@H](c2ccccc2)N2[C@H]1[C@@H](C(=O)N1CCN(c3ncccn3)CC1)[C@]1(C(=O)Nc3ccc(C#CC4=CCCCC4)cc31)[C@H]2c1ccc(O)cc1`, the relative growth was inactive: 1.04.

On to `C[C@@H]1CN([C@@H](C)CO)S(=O)(=O)c2ccc(-c3ccc(F)cc3)cc2O[C@@H]1CN(C)C(=O)C1CCOCC1`, for which the relative growth is inactive: 0.98.

As to `Nc1ccn[nH]1`, the relative growth was inactive: 1.02.

On to `C[C@@H]1CN([C@@H](C)CO)C(=O)c2cccc(NS(C)(=O)=O)c2O[C@@H]1CN(C)C(=O)Nc1ccc(C(F)(F)F)cc1`, for which the relative growth is inactive: 0.997.

Regarding `CO/N=C1\C[C@]2(C[C@@H]3C[C@@H](C/C=C(\C)C[C@@H](C)/C=C/C=C4\CO[C@@H]5[C@H](O)C(C)=C[C@@H](C(=O)O3)[C@]45O)O2)O[C@H](/C(C)=C/C(C)C)[C@H]1C`, the relative growth was inactive: 0.994.

For `C[C@@H]1CN([C@H](C)CO)C(=O)c2cc(NC(=O)Cc3cn(C)c4ccccc34)ccc2O[C@H]1CN(C)Cc1ccc(Oc2ccccc2)cc1`, the relative growth was inactive: 0.974.

Regarding `C[C@@H]1CCCCO[C@@H](CN(C)Cc2ccccc2)[C@@H](C)CN([C@@H](C)CO)C(=O)c2cc(NC(=O)Nc3ccc(C(F)(F)F)cc3)ccc2O1`, the relative growth was inactive: 1.03.

On to `C[C@H]1CCCCO[C@H](CN(C)Cc2ccc(C(=O)Nc3ccccc3N)cc2)[C@@H](C)CN([C@@H](C)CO)C(=O)c2cc(N(C)C)ccc2O1`, for which the relative growth is inactive: 0.982.

As to `CCOC(=O)CN1CCN(C=O)CC1`, the relative growth is inactive: 1.01.

As to `CCCCCCCCCCCCCCCCOP(=O)([O-])OCC[N+](C)(C)C`, the relative growth is inactive: 1.

`C[C@H]1CN([C@@H](C)CO)C(=O)c2cc(NC(=O)CCCCCC(=O)Nc3ccccc3N)ccc2O[C@H]1CN(C)C(=O)Nc1ccc(C(F)(F)F)cc1`: the relative growth was inactive: 1.

In the case of `Cc1noc(C)c1S(=O)(=O)Nc1ccc2c(c1)CC(=O)N([C@@H](C)CO)C[C@H](C)[C@H](CN(C)Cc1ccc3c(c1)OCO3)O2`, the relative growth is inactive: 1.

With `COC(=O)c1c2oc(c1C(=O)OC)C(=O)N[C@@H](Cc1ccccc1)Cn1cc(nn1)CNC(=O)[C@H](Cc1ccccc1)NC(=O)N[C@@H](CO)CC2`, the relative growth was inactive: 0.991.

As to `CCS(=O)(=O)Nc1ccc2c(c1)C(=O)N(C)C[C@H](OC)[C@@H](C)CN(Cc1nccs1)[C@H](C)CO2`, the relative growth is inactive: 0.98.

On to `O=C(C[C@H]1CC[C@H]2[C@@H](COC[C@@H](O)CN2C(=O)c2ccc3c(c2)OCO3)O1)NCCN1CCCC1`, for which the relative growth is inactive: 0.997.

On to `COc1ccc(CN(C)C[C@H]2Oc3c(NC(=O)c4cc(C)nn4C)cccc3C(=O)N([C@@H](C)CO)C[C@@H]2C)cc1`, for which the relative growth is inactive: 0.994.

`COC(=O)c1ccc2c(c1)NC(=O)C2`: the relative growth is inactive: 0.99.

`CN(C)CC(=O)N1[C@@H]2c3ccc(-c4ccncc4)c(=O)n3C[C@H]1[C@H](CO)[C@H]2C(=O)NC1CCC1`: the relative growth is inactive: 1.01.

As to `C[C@@H]1O[C@@H](O[C@@H]2[C@@H](O)[C@H](O)[C@@H](CO)O[C@H]2c2c(O)cc3oc(-c4ccc(O)cc4)cc(=O)c3c2O)[C@H](O)[C@H](O)[C@H]1O`, the relative growth was inactive: 0.993.

`CC(=O)Nc1ncc(CN2CCOCC2)s1`: the relative growth is inactive: 1.03.

Take `CC(Cc1ccc(O)c(O)c1)(NN)C(=O)O` (configuration not stated): the relative growth was inactive: 0.881.

As for `Cc1cc(NS(=O)(=O)c2ccc(N)cc2)nc(C)n1`, the relative growth was inactive: 1.02.

`C/C=C/[C@@H](CCn1cc(CCO[Si](C(C)C)(C(C)C)C(C)C)nn1)[Si](C)(C)c1ccc(OC)cc1`: the relative growth is inactive: 1.06.

On to `Cc1cc2cc(C)nn2c(N)n1`, for which the relative growth is inactive: 0.985.

`COc1ccc(NC(=O)Nc2cccc3c2O[C@@H](CN(C)Cc2ccc(C(=O)Nc4ccccc4N)cc2)[C@@H](C)CN([C@H](C)CO)C3=O)cc1`: the relative growth was inactive: 1.01.

With `Cc1ccc(S(=O)(=O)N(C)C[C@@H]2OCCCC[C@H](C)Oc3ccc(NC(=O)NC4CCCCC4)cc3C(=O)N([C@H](C)CO)C[C@@H]2C)cc1`, the relative growth was inactive: 0.999.

`CS(=O)(=O)Nc1ccc2c(c1)[C@H]1C[C@H](CC(=O)NCC3CC3)O[C@@H](CO)[C@H]1O2`: the relative growth was inactive: 1.02.
